Measured values as given in paper PMC7738880, “Identification of novel CD44v6-binding peptides that block CD44v6 and deliver a pro-apoptotic peptide to tumors to inhibit tumor growth and metastasis in mice” (Theranostics, 2021).

Legend:
[1] = molecular target: T1, biotin-labeled NEW (CNEWQLKSC) (cysteine pairing not given here); assay: SPR; biotin-labeled peptides (25 µM) immobilised on a streptavidin chip; CD44v6-Fc or CD44-Fc flowed at 0.125, 0.25, 0.5, 1 and 2 µM, single cycle; 137 mM NaCl, 10 mM phosphate, 2.7 mM KCl pH 7.4, 62.5 µM BSA, 0.005% Tween-20; steady-state fit, 1:1 model; conditions: both partners purified
T1 construct: also called biotinylated NEW; biotin-conjugated NEW; source: synthetic peptide (Anygen Inc.)
T1 peptide: Biotin-CNEWQLKSC

[2] = molecular target: T2, biotin-labeled NLN (CNLNTIDTC) (cysteine pairing not given here); assay: as above; conditions: both partners purified
T2 construct: also called biotinylated NLN; biotin-conjugated NLN; source: synthetic peptide (Anygen Inc.)
T2 peptide: Biotin-CNLNTIDTC

B1: recombinant human CD44v6-Fc protein (Fc fusion)
chain: [letters of about 200 residues not shown]ATQATPSSTTEETATQKEQWFGNRWHEGYRQTPKEDSHSTTGTAAGDQDTFHPSGGSHTTHGSESDGHSHGSQEGGANTTSGPIRTPQIPE
Q: Which results are given for B1?
A: Kd [1]: 85 ± 18 nM; Kd [2]: 253 ± 79 nM

No end group written: not given here. *: point of attachment. Biotin = O=C1N[C@H]2[C@H](CS[C@H]2CCCCC(=O)*)N1
